Measurements from the BET-seq Pho4 binding data (Le et al. 2018).
Some of the results follow. These are noisy estimates, calculated here from bound and input reads.

Each sequence was assayed against T1, Pho4 (S. cerevisiae) (UniProt P07270) (assay: relative binding free energy (BET-seq); higher = weaker binding). Settings: reference: library average.
T1 sequence: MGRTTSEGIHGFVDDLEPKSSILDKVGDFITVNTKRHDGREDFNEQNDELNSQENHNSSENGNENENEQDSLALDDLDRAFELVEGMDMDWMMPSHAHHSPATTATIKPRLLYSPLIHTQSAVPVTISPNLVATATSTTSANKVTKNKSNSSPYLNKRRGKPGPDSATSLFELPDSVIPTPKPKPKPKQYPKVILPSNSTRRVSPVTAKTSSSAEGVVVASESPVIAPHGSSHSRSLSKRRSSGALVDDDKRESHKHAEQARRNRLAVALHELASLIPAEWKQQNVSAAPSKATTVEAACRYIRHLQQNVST

Sequence | relative binding free energy [kcal/mol]
GGAGACACGTGGGTTG | -0.15
GTGTCCACGTGAATGT | 0.22
ATTGTCACGTGAGTTA | 0.25
TGTGTCACGTGGCGTC | -0.1
TTAAGCACGTGTAGGG | -0.09
TTATTCACGTGGTAAA | 0.13
TTTGGCACGTGATGGA | -0.02
ATTACCACGTGGGGGG | -0.26
ATGGTCACGTGGTAAT | 0.17
AGGTACACGTGGATTA | 0.11
GGCTGCACGTGGTTTG | 0.08
TGGCTCACGTGGGCAT | 0.1
TTCCGCACGTGGAGGG | -0.1
TCGGTCACGTGGGGAT | 0.07
GTAATCACGTGAGTCA | 0.5
TCTTACACGTGTGGAT | 0.11
GTGAACACGTGCTGTT | -0.02
TTTGTCACGTGGTAAA | 0.2
AAGTGCACGTGGGGAG | -0.26
GAGGACACGTGTTGCA | 0.24
GATTTCACGTGGAGTG | 0.28
TGTGTCACGTGGTTCT | -0.14
TGCCGCACGTGTGGCG | 0.04

Sequence | relative binding free energy [kcal/mol]
CAGTTCACGTGGGGGG | 0.16
GGAGGCACGTGCTAGT | -0.22
TTGGTCACGTGTCCGT | 0.06
GTGAGCACGTGTGTTT | -0.05
GGTTGCACGTGAGTGC | 0.34
CTAGGCACGTGTACGG | 0.01
AATTGCACGTGTAGCG | 0.14
GGGAACACGTGAGTGT | 0.23
GGTGCCACGTGGTGAT | -0.06
GTAGGCACGTGCGGCC | 0.13
ATGATCACGTGATAGG | 0.21
TGAGCCACGTGGGGGT | -0.24
GTATCCACGTGGTGCG | 0.01
TATTTCACGTGTTGCC | 0.34
GTGGTCACGTGCTTAT | 0.13
AATGTCACGTGTCTAT | 0.2
AGGCACACGTGGTTGT | 0
TGGTTCACGTGAAGAA | 0.22
CTATACACGTGGTATT | 0.02
AAGGACACGTGAGGGT | 0.25
TCATGCACGTGTCTTG | 0.02
TGACACACGTGGAAGG | 0.09
AGGTACACGTGGTGGT | -0.01

Sequence | relative binding free energy [kcal/mol]
TCGTGCACGTGTAGGG | -0.1
AGAGGCACGTGGGTAC | -0.3
GTTTACACGTGTGACT | 0.16
TGGAGCACGTGGAAGC | 0.03
TGTGACACGTGGGAGG | -0.08
CGGAACACGTGGAGGG | -0.18
AGGGACACGTGTCGTG | -0.1
TGGCTCACGTGGACGT | 0.35
GTTTGCACGTGCACGT | 0.02
CTTGTCACGTGTGTTC | 0.14
CGAGTCACGTGGAAGT | 0.14
TTGTACACGTGGATAA | 0.09
AGTAGCACGTGTTGTA | -0.08
TTATTCACGTGGCGCT | 0.08
GGGGTCACGTGTAACA | 0.17
GCTGTCACGTGGGATG | 0.06
TTGTGCACGTGTAAAG | 0.03
GGGGTCACGTGCGTAG | 0.03
TATAACACGTGTGGCG | 0.05
GTCAGCACGTGGGTAT | -0.18
TATGTCACGTGATCGT | 0.12
GGAGTCACGTGATAGA | 0.19
TAATTCACGTGCATAT | 0.24

Sequence | relative binding free energy [kcal/mol]
ATACTCACGTGGTGGA | 0.15
GGGCGCACGTGGTGTT | -0.13
GTTGTCACGTGTGTGT | 0.12
TATTTCACGTGTAAGT | 0.34
TTGTTCACGTGAGACA | 0.44
TGAAACACGTGGGTAG | -0.09
GATTACACGTGGCTTT | 0.13
ATCGGCACGTGTTGGT | -0.09
CTGGTCACGTGGGGTC | 0.02
CACGGCACGTGGGGGG | -0.37
GGTTTCACGTGTATTT | 0.26
TCTGGCACGTGGTGGG | -0.08
GGGGCCACGTGATGTT | 0.09
TGTAGCACGTGCTGGA | -0.1
GGCTTCACGTGGGAGG | 0.23
ATTTACACGTGAGCGT | 0.18
GATTACACGTGATAGG | 0.25
AGGGGCACGTGTAGAA | -0.07
GTTGACACGTGTTTGC | 0.14
ATAACCACGTGGGTTT | -0.17
GAGATCACGTGATGGG | 0.25
GCTGTCACGTGTGGAG | 0.16
CAGGTCACGTGGGCGT | -0.21

Sequence | relative binding free energy [kcal/mol]
ATCTTCACGTGAGTGG | 0.43
AAAGACACGTGGAGTT | 0.19
TTGGCCACGTGGGCTG | -0.32
AGAGGCACGTGGGTGG | -0.29
GATGGCACGTGGGGCA | -0.22
AGGTTCACGTGCTTTT | 0.22
CTCTTCACGTGTTTGG | 0.04
GGTGGCACGTGATATG | -0.02
GTTGTCACGTGGTACT | 0.03
ATGGGCACGTGGAGCA | -0.09
CTGTGCACGTGTGATA | 0.05
TAGTACACGTGAGGAG | 0.38
GTTGACACGTGATTAA | 0.13
CTTGACACGTGTTGGG | 0
AAAGACACGTGGGGGA | -0.07
CTAGACACGTGGTAGG | -0.12
ATTGACACGTGTGATG | -0.07
TGTGTCACGTGAATCG | 0.41
TTTTTCACGTGAGAGC | 0.39
GGTTTCACGTGTTTGT | 0.22
TGTGTCACGTGTACTA | 0.03
ATGGTCACGTGCAGAG | 0.02
TCTGTCACGTGGTTCG | 0.11
